Reference: PubChem BioAssay AID493131 (Broad Institute, 2011)
Hit rate of the full screen: of about 340,000 compounds, about 3,300 (0.97%) were called active. Inconclusive means that the source gave no clear call. Such entries were picked first, then a sample of the others.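 How the source made its calls: active means mean activation above about 17%, with every replicate also reaching it (limit read from the data, passing the limit was not always enough); inconclusive means only one of the two conditions met; inactive means the rest.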

target: Protein FosB (Mus musculus) (UniProt P13346); experiment: enhancers of mouse delta FosB DNA binding – biochemical, fluorescence polarization, TAMRA-CDK5 oligo, single point, primary screen (AID 493131); details: purified delta FosB, at 25 µM, hits give high values, percent of positive-control signal above neutral wells;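 further: fluorescence polarization rise as delta FosB binds a TAMRA Cdk5 AP-1 oligo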
Chain of UniProt P13346 (P13346 whole entry, looked up): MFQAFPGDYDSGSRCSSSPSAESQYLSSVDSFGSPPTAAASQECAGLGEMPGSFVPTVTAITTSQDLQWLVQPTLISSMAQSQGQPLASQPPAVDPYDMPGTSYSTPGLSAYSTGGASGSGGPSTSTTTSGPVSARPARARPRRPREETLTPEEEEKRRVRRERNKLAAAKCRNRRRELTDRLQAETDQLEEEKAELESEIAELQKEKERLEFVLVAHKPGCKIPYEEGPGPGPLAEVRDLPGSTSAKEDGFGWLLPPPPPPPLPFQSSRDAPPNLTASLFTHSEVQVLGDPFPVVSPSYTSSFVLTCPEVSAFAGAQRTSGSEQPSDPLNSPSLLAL

Row | SMILES | activation
1 | COc1ccc(/C=C2\SC(=O)N(CC(=O)NC3CCS(=O)(=O)C3)C2=O)cc1 (stereo not drawn) | inconclusive: 19%
2 | N#CC(OC(=O)c1ccccc1)c1cccc([N+](=O)[O-])c1 (stereo not drawn) | inactive: 1.73%
3 | CCCNc1nc(Cl)nc(Nc2ccc(Cl)cc2)n1 | inconclusive: 16.8%
4 | CC(=O)Nc1ccc(S(=O)(=O)Oc2cccc(/C=C3\SC(N)=NC3=O)c2)cc1 | active: 32.9%
5 | O=S(=O)(/N=C(/c1ccc(F)cc1)N1CCCCC1)c1ccc(Cl)cc1 | inactive: -1.55%
6 | COc1ccc(CNCCC(c2ccccc2)c2ccc3c(c2)OCO3)cc1 (stereo not drawn) | inactive: 6.64%
7 | Cc1cc(C)c(O)c(-c2cc(C(=O)Nc3cccnc3)[nH]n2)c1 | inconclusive: 16.2%
8 | COc1ccc(NC(=O)[C@H](NC(=O)[C@@H]2Cc3ccccc3CN2)c2ccccc2)cc1 | inconclusive: 17.6%
9 | NC(=O)c1c(NC(=O)Cn2nc(C(=O)O)c3ccccc3c2=O)sc2c1CCC2 | active: 33.4%
10 | COc1ccc2c(c1)c1nc3ccccc3nc1n2CC(=O)OC(C)C | inconclusive: 16.5%
11 | CCCCN(C)CCNC(=S)Nc1ccc2nc(N3CCN(CC)CC3)cc(C)c2c1 | inconclusive: 16.9%
12 | O=[N+]([O-])c1ccc(-c2ccc(S(=O)(=O)N3CCOCC3)cc2)cc1 | inactive: -9.95%
13 | C=CCn1c(=NC(=O)c2ccc(S(=O)(=O)N3CCCC3)cc2)sc2cc(NC(C)=O)ccc21 | active: 50.4%
14 | Brc1ccc(C2Nc3cccc4cccc(c34)N2)o1 | inconclusive: 27.2%
15 | CSc1ccc(CCNC(=O)Cn2ncc3c([nH]c4ccccc43)c2=O)cc1 | inconclusive: 21.8%
16 | CC(=O)c1nn(-c2ccc(Br)cc2)cc1C(=O)c1ccco1 | inconclusive: 18.3%
17 | Cc1cccc(C)c1OCC(=O)N=Nc1c(O)[nH]c2ccc(Br)cc12 | inconclusive: 21.3%
18 | Cc1cc(Cl)ccc1NC(=O)CCC(=O)N/N=C/c1cc([N+](=O)[O-])ccc1O | inconclusive: 18.8%
19 | NC1=NC(=O)/C(=C/c2ccc(Cl)cc2Cl)S1 | inconclusive: 19.3%
20 | Cc1cccc(OCC(=O)Nc2ccc(NC(=O)c3ccco3)cc2)c1 | inconclusive: 19.5%
21 | Cc1ccc(-c2csc(NC(=O)C3=NN(C4CCS(=O)(=O)C4)C(=O)CC3)n2)cc1 (stereo not drawn) | inconclusive: 18.9%

Row | SMILES | activation
22 | COc1cc2c(cc1OC)C(c1cc(OC)c(OC)c(OC)c1)NCC2 (stereo not drawn) | inactive: -7.57%
23 | S=c1[nH]nc(-c2cc(-c3ccccc3)n[nH]2)n1/N=C/C=C/c1ccccc1 | active: 41.3%
24 | COc1cc(C(=O)NC2CCN(C)CC2)ccc1Nc1ncc2c(n1)N(C1CCCC1)CCC(=O)N2C(C)C | inactive: 7.44%
25 | COC(=O)c1ccc(C(=O)Nc2ccc3nc(-c4cccnc4)[nH]c3c2)cc1 | active: 46.9%
26 | C/C(=N\Nc1nncc2ccccc12)c1ccc(OCC(=O)N(C)C)cc1 | inactive: -2.04%
27 | O=[N+]([O-])c1ccc(N/N=C/c2cccc(O)c2O)c(S(=O)(=O)N2CCOCC2)c1 | inconclusive: 17.5%
28 | O=C(CSc1nnc(NC(=O)c2ccc3c(c2)OCO3)s1)NCc1ccco1 | inconclusive: 31.4%
29 | CCOc1ccc2c(C)nc(NC3=NC(C)(C)C=C(C)N3)nc2c1 | active: 25.6%
30 | CCN(CC)c1ccc(/C=N/Nc2nc3ccccc3[nH]2)c(O)c1 | active: 31.7%
31 | O=C(Nc1nc(-c2ccccc2)cs1)c1ccc(S(=O)(=O)N2CCc3ccccc32)cc1 | inconclusive: 18.8%
32 | Cc1cc(NC(=O)/C(C#N)=C/c2ccc(-c3ccc(SC(F)F)cc3)o2)n(-c2ccccc2)n1 | inconclusive: 17%
33 | COc1ccc2oc(C(=O)Nc3nc4ccc(S(C)(=O)=O)cc4s3)c(C)c2c1 | active: 61%
34 | O=C(Nc1ccc(Nc2ccncc2)cc1)c1ccc(Nc2ccnc3ccc([N+](=O)[O-])cc23)cc1[N+](=O)[O-] | inconclusive: 16.5%
35 | COc1ccc(NS(=O)(=O)c2cccc(C(=O)NN=Cc3cc(Br)c(O)c(Br)c3)c2)cc1 | inconclusive: 16.6%
36 | Cc1[nH]n(-c2ccc([N+](=O)[O-])cc2)c(=O)c1C=NCCc1c[nH]c2ccccc12 | inconclusive: 16.8%
37 | CC1(C)CCCN(Cc2c(O)ccc3c(=O)c(-c4nc5ccccc5s4)c(N)oc23)C1 | inconclusive: 18.1%
38 | COc1ccc(C[C@H]2CN3C(=NC[C@@H]3Cc3ccc(O)cc3)N2CCNC(=O)c2ccc(C)c(Br)c2)cc1 | inconclusive: 21.5%
39 | O=C(CSc1ccc(F)cc1)Nc1cccc(S(=O)(=O)N2CCOCC2)c1 | inactive: -2.32%
40 | Cc1ccc(SCC(=O)OCC(=O)N(CC(C)C)c2c(N)n(Cc3ccccc3)c(=O)[nH]c2=O)cc1C | active: 33.4%
41 | CCN(CC)CCN(C(=O)CCS(=O)(=O)c1ccccc1)c1nc2cc3c(cc2s1)OCO3 | inconclusive: 19.8%
42 | CCC(C)NC(=O)CSc1nc2c(sc(=S)n2Cc2ccco2)c(=O)n1-c1ccccc1 (stereo not drawn) | inconclusive: 28.2%

Row | SMILES | activation
43 | Cc1ccc(C)c(C2NC(=O)c3ccccc3N2)c1 (stereo not drawn) | inactive: -2.82%
44 | COCCCNS(=O)(=O)c1ccc(OC)c(Cl)c1Cl | inactive: -2.94%
45 | N#Cc1ccccc1/C=N/Nc1nc(-c2ccccc2)c2cc(Br)ccc2n1 | inconclusive: 16.3%
46 | CCOc1ccc(/C=C2/SC(=S)N(CCC(=O)Nc3ccc(C(=O)O)cc3)C2=O)cc1 | active: 47.9%
47 | Cc1ccc(NC(=O)COC(=O)c2ccc(S(=O)(=O)NCc3ccco3)cc2)cc1 | inconclusive: 17.6%
48 | CCN(CC)CCN(C(=O)c1ccc(S(=O)(=O)N(C)C2CCCCC2)cc1)c1nc2ccc(OC)cc2s1 | inconclusive: 23.3%
49 | CCOC(=O)C1CCN(S(=O)(=O)c2ccc(C(C)=O)cc2)CC1 | inactive: 4.79%
50 | COc1ccccc1N(C)S(=O)(=O)c1ccc(C(=O)OCC(=O)c2c[nH]c3ccccc23)cc1 | inconclusive: 17.6%
51 | COc1ccc(CC(=O)Nc2cccc(-c3nnc(-c4ccccc4)o3)c2)cc1OC | inactive: -6.05%
52 | O=C(C[n+]1cc(-c2ccc(F)cc2)n2c1CCC2)Nc1nc(-c2ccc(F)cc2)cs1 | inconclusive: 17%
53 | Cc1ccc2nc(-c3ccc(NC(=O)c4ccco4)cc3)[nH]c2c1 | active: 42.8%
54 | COc1ccc(OC)c(NC(=O)Cn2c(=O)n(CC(=O)NCc3ccco3)c(=O)c3ccccc32)c1 | inconclusive: 17.1%
55 | COc1cc(OC)cc(C(=O)N[C@H](C(=O)OCC(=O)c2c[nH]c3ccccc23)C(C)C)c1 | inconclusive: 22.8%
56 | CCCCC(=O)NNC(=O)c1c(O)c2ccccc2[nH]c1=O | inconclusive: 18.4%
57 | Cn1c(SCC(=O)NCc2ccc3c(c2)OCO3)nc2scc(-c3cccs3)c2c1=O | inconclusive: 20.6%
58 | Cc1ccc(NC(=O)CCCc2nc3ccccc3c(=O)[nH]2)c(Cl)c1 | inconclusive: 20%
59 | Cc1ccc(NC(=O)NNC(=O)c2cc3ccccc3cc2O)cc1C | active: 54.2%
60 | Cc1cccn2c(=O)c3cc(C(=O)NC(C)c4ccccc4)c(=N)n(CCCn4ccnc4)c3nc12 (stereo not drawn) | inconclusive: 19.1%
61 | CCc1nn(CCCC(=O)NCc2ccccc2Br)c(=O)c2cc3occc3n12 | inconclusive: 26.7%
62 | CSc1nnc2c3cc(C)ccc3n(Cc3ccccc3)c2n1 | inconclusive: 93.1%
63 | CC(=O)Nc1ccc(S(=O)(=O)Nc2cccc(-c3nc4cc(C)ccc4o3)c2)cc1 | inactive: -10.1%

Row | SMILES | activation
64 | COc1ccccc1/C=N/NC(=O)C(=O)Nc1ccccc1OC(F)(F)C(F)F | inactive: 2.61%
65 | CCOC(=O)c1cccc(N2CC3CNC(=O)C2(C(=O)OC)N3C)c1 (stereo not drawn) | inactive: 0.013%
66 | CC1=NC(Nc2nc(C)c3ccccc3n2)=NC(C)(C)C1 | inconclusive: 17.5%
67 | CCOC(=O)c1c(NC(=O)COC(=O)c2cnccn2)sc(C(=O)NC)c1C | active: 39.1%
68 | Cc1sc(-c2ccccn2)nc1OC(=O)c1ccc(Cl)cc1 | inconclusive: 16.4%
69 | CC(C)OC(=O)CSc1nc2c(cc1C#N)CCCCC2 | inactive: -0.567%
70 | Cc1ccc(C(=O)NCC(=O)N/N=C/c2sccc2C)cc1[N+](=O)[O-] | inconclusive: 23.4%
71 | CC(=O)c1sc(NC(=O)c2ccc(C)c(C)c2)nc1C | active: 23.5%
72 | Cc1ccc(S(=O)(=O)N(C)CCCC(=O)NC(C)(C)CO)cc1 | inactive: -3.69%
73 | Cc1cccc2cc(C#N)c(SCC(=O)NNC(=O)Cc3ccccc3)nc12 | inconclusive: 27.1%
74 | CCN1CCN(c2ccc(S(=O)(=O)N3CCCCC3)cc2NC(=O)c2cccc(C(F)(F)F)c2)CC1 | active: 20.9%
75 | NC(=O)CN1CCN(CCN2C(=O)c3cccc4cccc(c34)C2=O)CC1 | active: 24%
76 | Cc1cc(N2CCN(C(=O)Nc3ccc(F)cc3F)CC2)c2ccccc2n1 | inactive: -9.36%
77 | COc1ccccc1NC(=S)N(Cc1ccco1)Cc1cc2cc(C)ccc2[nH]c1=O | inconclusive: 22.7%
78 | O=C1c2ccccc2C(=O)N1CCCN1C(=O)c2ccccc2C1=O | inconclusive: 17.7%
79 | Cc1cc(C)cc(S(=O)(=O)c2cnc3ccccc3n2)c1 | inactive: -6.44%
80 | Cc1ccc(NC(=O)Cn2nnc(C(=O)NCCc3ccccc3)c2N)c(C)c1 | active: 28.8%
81 | Cc1ccc(-n2c(SCC(=O)Nc3nccs3)nc3c(c2=O)SCC3)cc1 | active: 38.2%
82 | CC(=O)Nc1ccc(Nc2nc(-c3cc4ccccc4oc3=O)cs2)cc1 | inactive: -6.58%
83 | COc1ccc(S(=O)(=O)N2CCN(c3nc(-c4cccnc4)nc4ccccc34)CC2)cc1 | active: 17.8%
